# Measured values from the supplement of paper PMC4604168 (melanoma cell lines).
# Some of the results follow. Repeats are few or missing, and single values can be far off.
# Tested on: A101D
# Test: cell count relative to DMSO control; melanoma cells; higher = more viable cells
# Settings: library dose: standard library concentration; 72 h
# 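Also: cells treated in 1,536-well plates, then fixed and DAPI-stained, with nuclei counted from automated high-throughput microscope images.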
row,SMILES,cell count [%]
1,"O=C(/C=C/c1cccnc1)NCCCCC1CCN(C(=O)c2ccccc2)CC1 + Cc1cc(SCc2sc(-c3ccc(C(F)(F)F)c(F)c3)nc2C)ccc1OCC(=O)O [GW0742] (first compound 0.05 µM, partner dose 10 µM)",87.7
2,"Nc1nc(F)nc2c1ncn2[C@@H]1O[C@H](CO)[C@@H](O)[C@@H]1O [fludarabine] + Cc1cc(SCc2sc(-c3ccc(C(F)(F)F)c(F)c3)nc2C)ccc1OCC(=O)O [GW0742] (first compound 1 µM, partner dose 10 µM)",93.4
3,"CC1(C)CCC(c2ccc(Cl)cc2)=C(CN2CCN(c3ccc(C(=O)NS(=O)(=O)c4ccc(N[C@H](CCN5CCOCC5)CSc5ccccc5)c(S(=O)(=O)C(F)(F)F)c4)cc3)CC2)C1 + O=C(Oc1ccc([N+](=O)[O-])cc1)N1CCC(C(O)(c2ccc3c(c2)OCO3)c2ccc3c(c2)OCO3)CC1 [JZL184] (first compound 2 µM, partner dose 5 µM)",46.2
4,"Cn1c(=O)n(-c2ccc(C(C)(C)C#N)cc2)c2c3cc(-c4cnc5ccccc5c4)ccc3ncc21 + Cc1cc(SCc2sc(-c3ccc(C(F)(F)F)c(F)c3)nc2C)ccc1OCC(=O)O [GW0742] (first compound 0.02 µM, partner dose 10 µM)",76.2
5,"NCC(=O)Nc1ccc(-n2nc(C(F)(F)F)cc2-c2ccc3c(ccc4ccccc43)c2)cc1 + Cc1cc(SCc2sc(-c3ccc(C(F)(F)F)c(F)c3)nc2C)ccc1OCC(=O)O [GW0742] (first compound 5 µM, partner dose 10 µM)",60.6
6,"O=C(Nc1cccc(Cl)c1)Nc1ncc(CCNc2ncnc3ccsc23)s1 + O=C(Oc1ccc([N+](=O)[O-])cc1)N1CCC(C(O)(c2ccc3c(c2)OCO3)c2ccc3c(c2)OCO3)CC1 [JZL184] (first compound 0.004 µM, partner dose 5 µM)",71.6
7,"CN(C)S(=O)(=O)c1ccc2c(c1)/C(=C/c1cc3c([nH]1)CCCC3)C(=O)N2 + C/C(O)=C(\C#N)C(=O)Nc1cc(Br)ccc1Br [LFM-A13] (first compound 2 µM, partner dose 10 µM)",65.7
8,"C[C@]1(c2nc3c(C(N)=O)cccc3[nH]2)CCCN1 [Veliparib] + O=C(Oc1ccc([N+](=O)[O-])cc1)N1CCC(C(O)(c2ccc3c(c2)OCO3)c2ccc3c(c2)OCO3)CC1 [JZL184] (first compound 7 µM, partner dose 5 µM)",81.6
